According to the supplement of paper PMC10126150:
Sequences with one replicate were seen in a single cluster, so their values are uncertain.

Each sequence was assayed on ATP (assay: switch fluorescence ratio, 500 uM ATP over buffer (Cy3 cluster intensity, sum of 5 cycles each) (fold (ratio)); higher = stronger signal-on switching upon ATP binding; sequences stand for … in TCGTCGGCAGCGTCAGATGTGTATAAGAGACAGTTTTTTTTTTTTTTTTTTTTTTTTT…TC). Conditions: aptamer strand: ATP DNA aptamer (quencher-CACCTGGGGGAGTATTGCGGAGGAAGG + anchor), 100 nM annealed; ATP concentration: 500 uM; one replicate.
In short: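 Cy3-labelled switching-strand clusters on a modified Illumina MiSeq flow-cell were annealed to 100 nM quencher-labelled ATP aptamer, imaged in selection buffer, then imaged after 15 min with 500 uM ATP at 22 °C. Five buffer/ATP cycles ran, with NaOH stripping and re-annealing between them. The fluorescence ratio is summed target-cycle over summed buffer-cycle Cy3 intensity per cluster, averaged per switch-domain sequence. Clusters outside 100-1000 RFU were excluded.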
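Further: ATP exposure 15 min at 22 °C before imaging.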

Sequence	switch fluorescence ratio
AAGCTGCTT	0.998
CCATTAACAT	1.03
CGAGGCAGGA	2.15
GTATCAACAC	1.03
GACTGCCTGT	1.04
CCATGGGGTA	0.995
CAAGCCGGGC	1.09
GAATCGCTAT	1.05
AAACCATAAA	0.993
TTTTGATACC	1.05
TAATTCTGCC	1.05
GTTTATCTGG	0.97
ACCATTAGCT	1.01
CCGAGGAGTA	1.17
ACGCAGTGCT	1.72
TTATGAGCTC	0.98
TATAGGTTGC	0.991
GGAATGCG	1.04
TCTGGTGCCA	0.98
CTTTATATTG	0.981
CTAGAGTAAG	0.956
GTTGGAGAAT	0.995
TTCATCCCTC	1.06

Sequence	switch fluorescence ratio
ACCTTCAACG	2.41
ATGGTTGCTT	1.02
TGCCAGGGCA	1.03
TAAAACGGGC	1.03
ATGCCTGGGA	0.993
TTTGGTTA	0.976
TGTACGGGTG	1.11
GAATCTTTGC	1
ATCGTACCCT	1.12
TTAACCAAC	1.49
AGGTATTT	1.02
CCAGAGTTCC	1.02
TATGTTGGCC	1.04
GCCCCAGGAG	4.33
GCAGGTTCCC	1.07
CTTTGGCCGT	1.01
GCCAAGAATA	1.1
CCAGCGTATT	1.15
CTACTCAACG	1.2
TCACTTATGA	1.06
TTACGAGAGA	0.984
CCAGTTAACT	0.997
GGTAGGTGTG	0.98

Sequence	switch fluorescence ratio
CACGTCGTTA	1.03
ACGTTCTAC	1.26
TAAACAAGCA	1.05
ATGCTGACCG	1.01
GGAATACCCT	1.14
CATCGCTCGG	1.01
GTCGACGGTA	0.962
CATGACTTCC	1.96
TTCACCGCCC	1.86
GGAAAAACTT	1.05
TTTTTGAAA	1.07
CTCAGCTGAA	1.03
ACGCTTTTGA	1.05
ACTCGTACCG	1.04
TGGAATGGTT	1.03
AAAGCCAGAT	0.998
AGAATGTAAA	1.03
CTAGTAGGA	0.985
CTCGAGGCCA	1.07
ACGTAGACTC	1.34
TTGTGGCCAC	0.983
TGGTTTGAG	1
GGTGCTCTGG	0.995

Sequence	switch fluorescence ratio
GAATATTAAC	1.03
TGCCCGCACG	1.53
AGACTCCCAC	1.93
CGCGACCTT	1.1
TGTTACGCT	1
CATCAAGAGA	1.04
TCGCGAACTG	1.07
CGCACGGCGT	1
ATCGAATTAA	0.966
TACGTTGCAG	1
TTTAATATG	1.03
TGTTCATTTC	0.982
AGTAGTGCCT	1
CCTTGAGTCG	1.01
ATGTTGGT	1
GTTTTAAGTT	1.01
TCGGACCTG	1.13
TGTTTTTTCA	1.01
GGCATGGTTA	0.981
CTGAGCAATT	2.27
TGATGAAGTA	1.04
GGAAGTATTT	0.993
TGTTAGCGA	1.05

Sequence	switch fluorescence ratio
AGCTTTGTGT	0.951
CTCTTATAGC	1.59
TTAGGCAAGC	1.18
AGGCCATGTT	1
TCCCCGATCT	1.11
GCGAGATAGT	1.02
GCCCTGAGGT	1.04
AGGGTTGCCC	1.03
TTCCAATAGT	1.04
CAGGTTATC	0.997
GCTCCGAATG	4.97
TCTAGTTTGA	0.972
ATGGGACCAG	1.02
CTGGCGCCTT	0.96
CCGCCATAAT	4.61
ATACCGGCCG	0.985
CACGTAGACG	1.02
CACCCAATCG	1.18
GATTGCCAGT	1.04
GTTATTCC	1.11
CTCTACACCG	1.07
CACAGTTGGG	0.99
TAGTAAGACT	0.974

Sequence	switch fluorescence ratio
ATAATACTCG	1.15
TCAGGATATC	1.02
GCTTAAGCCA	1
TTTCTACAGG	1.05
TTGGTGTACA	0.929
ACCGAAAGAA	1.08
TCTTCTCAGA	1.13
TGACTTGGGC	0.954
GCTAGAGAGC	0.983
CGTTCTGGAT	1.01
ATAGTTGAGA	0.97
TGCCTTTGAG	1.01
TCTTAACATT	1.02
AATCGATAAT	1.07
CATTTAAATT	0.999
TCCGCCACCG	1.47
ATCCTATAGT	1.01
TTAGGTAAGG	1.01
TACTTTTGAG	1.06
ATTACGAC	1.16
GCCCTTCGGG	0.96
CGATTGTAT	1.03
CCAGCGCTGT	0.991

Sequence	switch fluorescence ratio
CATCGAATGT	1
CATTACATGA	0.974
CACCGCACGT	2.47
TCTAGGGGCA	0.947
TCAAAAACAC	1.77
AGGACGTCGT	1.06
CATATGGTA	1.06
CTGTTAAATC	1.01
GAGACCTCGA	1.02
CATGGGGTCG	0.983
AGGCACCCAT	0.998
TCGAGCGCGA	1.01
GCATGAGAGC	0.987
ATGCCTCGGC	0.981
GACGCCGAC	1.82
ATGCGGTGCG	1.01
CCAAAGGAGA	0.952
AGATTAATAT	0.972
CTTGATCCGT	1.17
AAGCAGGCGC	0.968
